Data published in patent US20100015139A1 (published 2010).

B1: human factor B (other)
chain: TPWSLAWPQGSCSLEGVEIKGGSFRLLQEGQALEYVCPSGFYPYPVQTRTCRSTGSWSTLKTQDQKTVRKAECRAIHCPRPHDFENGEYWPRSPYYNVSDEISFHCYDGYTLRGSANRTCQVNGRWSGQTAICDNGAGYCSNPGIPIGTRKVGSQYRLEDSVTYHCSRGLTLRGSQRRTCQEGGSWSGTEPSCQDSFMYDTPQEVAEAFLSSLTETIEGVDAEDGHGPGEQQKRKIVLDPSGSMNIYLVLDGSDSIGASNFTGAKKCLVNLIEKVASYGVKPRYGLVTYATYPKIWVKVSEADSSNADWVTKQLNEINYEDHKLKSGTNTKKALQAVYSMMSWPDDVPPEGWNRTRHVIILMTDGLHNMGGDPITVIDEIRDLLYIGKDRKNPREDYLDVYVFGVGPLVNQVNINALASKKDNEQHVFKVKDMENLEDVFYQMIDESQSLSLCGMVWEHRKGTDYHKQPWQAKISVIRPSKGHESCMGAVVSEYFVLTAAHCFTVDDKEHSIKVSVGGEKRDLEIEVVLFHPNYNINGKKEAGIPEFYDYDVALIKLKNKLKYGQTIRPICLPCTEGTTRALRLPPTTTCQQQKEELLPAQDIKALFVSEEEKKLTRKEVYIKNGDKKGSCERDAQYAPGYDKVKDISEVVTPRFLCTGGVSPYADPNTCRGDSGGPLIVHKRSRFIQVGVISWGVVDVCKNQKRQKQVPAHARDFHINLFQVLPWLKEKLQDEDLGFL
B2: properdin (other, UniProt P27918 28-469, looked up)
chain: DPVLCFTQYEESSGKCKGLLGGGVSVEDCCLNTAFAYQKRSGGLCQPCRSPRWSLWSTWAPCSVTCSEGSQLRYRRCVGWNGQCSGKVAPGTLEWQLQACEDQQCCPEMGGWSGWGPWEPCSVTCSKGTRTRRRACNHPAPKCGGHCPGQAQESEACDTQQVCPTHGAWATWGPWTPCSASCHGGPHEPKETRSRKCSAPEPSQKPPGKPCPGLAYEQRRCTGLPPCPVAGGWGPWGPVSPCPVTCGLGQTMEQRTCNHPVPQHGGPFCAGDATRTHICNTAVPCPVDGEWDSWGEWSPCIRRNMKSISCQEIPGQQSRGRTCRGRKFDGHRCAGQQQDIRHCYSIQHCPLKGSWSEWSTWGLCMPPCGPNPTRARQRLCTPLLPKYPPTVSMVEGQGEKNVTFWGRPLPRCEELQGQKLVVEEKRPCLHVPACKDPEEEEL
notes: also called factor P

Assays:
human C3c = target: T1, human C3c (human, UniProt P01024 23-667; P01024 749-954; P01024 1321-1663, limits assumed); assay: ELISA; factor B at various concentrations on C3c-coated plates, with and without properdin
human C3c, sequence (P01024 23-667 limits assumed, chain 1 of 3): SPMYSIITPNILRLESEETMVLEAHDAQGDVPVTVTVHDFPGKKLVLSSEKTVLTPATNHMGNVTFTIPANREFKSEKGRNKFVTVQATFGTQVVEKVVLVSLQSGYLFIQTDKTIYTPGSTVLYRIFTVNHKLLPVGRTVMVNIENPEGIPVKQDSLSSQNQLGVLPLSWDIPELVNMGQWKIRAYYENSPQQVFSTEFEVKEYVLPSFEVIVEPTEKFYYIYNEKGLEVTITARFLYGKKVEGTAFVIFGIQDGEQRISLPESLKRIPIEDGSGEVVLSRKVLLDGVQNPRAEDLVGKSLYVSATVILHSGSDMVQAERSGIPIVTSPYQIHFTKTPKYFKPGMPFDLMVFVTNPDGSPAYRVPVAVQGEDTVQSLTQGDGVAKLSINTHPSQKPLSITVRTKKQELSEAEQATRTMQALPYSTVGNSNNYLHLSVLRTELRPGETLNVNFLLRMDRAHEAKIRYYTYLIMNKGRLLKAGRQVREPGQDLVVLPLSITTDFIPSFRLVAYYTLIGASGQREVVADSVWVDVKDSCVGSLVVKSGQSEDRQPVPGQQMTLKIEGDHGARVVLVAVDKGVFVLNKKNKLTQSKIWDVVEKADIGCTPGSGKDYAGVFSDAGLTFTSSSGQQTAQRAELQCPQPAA
human C3c, sequence (P01024 749-954 limits assumed, chain 2 of 3): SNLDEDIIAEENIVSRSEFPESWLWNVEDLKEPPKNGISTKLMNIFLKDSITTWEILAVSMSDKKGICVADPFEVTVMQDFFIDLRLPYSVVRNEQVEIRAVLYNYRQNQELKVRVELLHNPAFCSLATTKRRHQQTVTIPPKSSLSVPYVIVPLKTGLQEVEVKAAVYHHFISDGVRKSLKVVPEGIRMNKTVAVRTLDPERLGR
human C3c, sequence (P01024 1321-1663 limits assumed, chain 3 of 3): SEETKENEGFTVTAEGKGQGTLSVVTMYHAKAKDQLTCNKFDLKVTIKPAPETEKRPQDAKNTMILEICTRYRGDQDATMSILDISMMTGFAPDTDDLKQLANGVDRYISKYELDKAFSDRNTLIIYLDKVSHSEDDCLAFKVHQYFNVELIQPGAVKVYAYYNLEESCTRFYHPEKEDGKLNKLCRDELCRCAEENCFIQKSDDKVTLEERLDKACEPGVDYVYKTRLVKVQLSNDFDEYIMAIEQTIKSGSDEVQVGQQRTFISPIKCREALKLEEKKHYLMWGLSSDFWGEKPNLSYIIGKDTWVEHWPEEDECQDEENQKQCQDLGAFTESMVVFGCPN
T1 construct: Coated on plates; also called Cc

human iC3b = target: T2, human iC3b (human, UniProt P01024 23-667; P01024 749-1303; P01024 1321-1663, limits assumed); assay: ELISA; factor B at various concentrations on iC3b-coated plates, with and without properdin
human iC3b, sequence (P01024 23-667 limits assumed, chain 1 of 3): as the sequence (P01024 23-667 limits assumed, chain 1 of 3) above
human iC3b, sequence (P01024 749-1303 limits assumed, chain 2 of 3): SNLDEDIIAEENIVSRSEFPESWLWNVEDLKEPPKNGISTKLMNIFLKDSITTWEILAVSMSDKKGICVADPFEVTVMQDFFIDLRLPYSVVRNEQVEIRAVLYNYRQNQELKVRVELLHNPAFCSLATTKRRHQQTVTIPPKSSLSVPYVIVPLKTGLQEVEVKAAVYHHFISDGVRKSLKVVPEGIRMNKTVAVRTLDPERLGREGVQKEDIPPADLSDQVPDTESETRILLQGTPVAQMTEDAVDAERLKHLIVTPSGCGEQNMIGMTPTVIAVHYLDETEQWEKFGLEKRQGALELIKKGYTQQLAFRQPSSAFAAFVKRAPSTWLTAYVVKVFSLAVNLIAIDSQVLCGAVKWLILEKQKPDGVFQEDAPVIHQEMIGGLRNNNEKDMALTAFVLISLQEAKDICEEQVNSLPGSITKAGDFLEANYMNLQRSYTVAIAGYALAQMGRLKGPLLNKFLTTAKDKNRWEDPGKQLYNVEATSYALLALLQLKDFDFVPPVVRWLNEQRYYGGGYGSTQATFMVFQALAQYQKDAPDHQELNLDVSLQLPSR
human iC3b, sequence (P01024 1321-1663 limits assumed, chain 3 of 3): as the sequence (P01024 1321-1663 limits assumed, chain 3 of 3) above
T2 construct: Coated on plates

human factor B = target: B1; assay: ELISA; various concentrations of properdin added to substrate-bound factor B

## B1
Human C3c
  binding result: no binding
Human iC3b
  binding result: no binding

## B2
Human factor B
  binding result: no binding
